Results on 79 compounds are retold here after publication PMC12040169 (PLOS Biology, 2025).

The other results are listed elsewhere or left out.

The assay deals with T1, C. trachomatis L2/434/Bu expressing GFP (CTL2-GFP).
T1 construct: L2/434/Bu GFP intracellular growth in HeLa cells
Set-up: species or system HeLa; C. trachomatis total inclusion area by high-content imaging, normalised to DMSO. The following applies: total inclusion area; 28.5 h, 10 µM; inhibitor. The method in brief:
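Imaging read-out: GFP inclusions and Hoechst nuclei captured by high-content imaging after fixation. Inclusion area/number = chlamydial growth; nuclei count = host cell viability. MIC calculated per earlier method.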
On to `COc1ccc(OC)c(NS(=O)(=O)N(C)C)c1` [CBK005362], for which the “% of control remaining” value came to 19.4074.

As for `CC(=O)NCCn1cc2c(n1)[C@H]1CN(C(=O)C3CCC3)C[C@H]1CC2` [CBK284584], the “% of control remaining” value was 74.2892.

As for `COc1cc(/C=N/NC(=O)CCNc2n[nH]c(=O)[nH]c2=O)cc(Br)c1O` [CBK263494], the “% of control remaining” value stood at 108.629.

With `CO[C@]1(c2ccc(Cl)cc2)CC[C@H](NCCCC(=O)c2ccc(F)cc2)CC1` [CBK015959C], the “% of control remaining” value stood at 22.6182.

Consider `CCCCc1cc(=O)oc2cc(OC(C)C(=O)O)c(Cl)cc12` (stereo not shown) [CBK265166], for which the “% of control remaining” value was 92.7619.

As to `Sc1nnc(COc2ccc(-c3ccccc3)cc2)n1-c1ccccc1` [CBK264964], the “% of control remaining” value was determined as 124.044.

Regarding `CS(=O)(=O)Nc1cc(-c2noc([C@@H]3CCCN3C3CCOCC3)n2)ccn1` [CBK288887], the “% of control remaining” value is recorded as 99.1311.

`CCC(Sc1nnc2c3ccccc3n(C)c2n1)C(=O)Nc1sc2c(c1C#N)CCCC2` (stereo not shown) [CBK263031]: the “% of control remaining” value was found to be 88.7684.

In the case of `Cc1ccc2nc(C(=O)O)cc(C(=O)O)c2c1` [CBK261174], the “% of control remaining” value is recorded as 90.9949.

Consider `O=C(CNC(=O)c1cccc(F)c1)N/N=C1/C(=O)N(Cc2ccc3c(c2)OCO3)c2ccccc21` [CBK263519], for which the “% of control remaining” value was found to be 79.8548.

On to `COc1ccc(C(=O)N2CCC3(CCCN(C(=O)Cc4ccc(Cl)c(Cl)c4)C3)C2)cc1OC` (stereo not shown) [CBK131654], for which the “% of control remaining” value turned out to be 103.242.

Turning to `O=C(COc1ccc(S(=O)(=O)NC2CCCCC2)cc1)Nc1cccc2ccccc12` [CBK266023], the “% of control remaining” value amounted to 91.6808.

Regarding `O=C(CSc1nnc(-c2ccncc2)n1-c1ccccc1)N1CCN(Cc2ccccc2)CC1` [CBK267240], the “% of control remaining” value turned out to be 100.778.

As for `COc1ccc(Br)cc1S(=O)(=O)NCCCN1CCOCC1` [CBK264050], the “% of control remaining” value turned out to be 107.333.

As for `Cc1c(C2CC(C(F)(F)F)n3nccc3N2)cnn1C` (stereo not shown) [CBK288015], the “% of control remaining” value is 91.5205.

Regarding `CCOC(=O)CNC(=O)N1CCCC1c1nc(-c2ccccc2)c2ccccn12` (stereo not shown) [CBK046502], the “% of control remaining” value was 79.1713.

In the case of `COc1ccc(CCN2C(=O)CC(C(=O)O)S/C2=N\c2ccccc2)cc1` (stereo not shown) [CBK286606], the “% of control remaining” value is 107.178.

With `O=P(O)(CN1CCOCC1)CN1CCOCC1` [CBK260914], the “% of control remaining” value was 81.9643.

On to `O=C(O)CC1c2ccccc2Oc2ccccc21` [CBK261836], for which the “% of control remaining” value is 91.5936.

For `COc1nccnc1N1CCN(CCc2ccccc2)CC1` [CBK084228], the “% of control remaining” value turned out to be 107.054.

`CCOC(=O)N1CCC(NS(=O)(=O)Cc2ccccc2[N+](=O)[O-])CC1` [CBK045467]: the “% of control remaining” value was found to be 38.6895.

On to `CCC(NC(=O)Cc1c(C)nc(SC)[nH]c1=O)c1ccc(F)cc1` (stereo not shown) [CBK282653], for which the “% of control remaining” value is listed as 105.101.

Consider `O=C(Nc1ccccc1)N(O)CC(O)COc1ccccc1` (stereo not shown) [CBK288399], for which the “% of control remaining” value turned out to be 99.2229.

For `O=C(NCC1CCCO1)NC(=O)c1nsc2ccccc12` (stereo not shown) [CBK019827], the “% of control remaining” value is 37.8592.

On to `COc1ccc(-n2nc3cc(C)c(NC(=S)NC(=O)/C=C/c4ccco4)cc3n2)cc1` [CBK264359], for which the “% of control remaining” value turned out to be 104.964.

As to `COc1ccc(NC(=O)CSc2nc3c(c(-c4cccs4)c2C#N)CN(C)CC3)cc1OC` [CBK267444], the “% of control remaining” value turned out to be 86.0123.

Consider `O=C(CSc1nc2ccccc2[nH]1)c1ccc2ccccc2c1` [CBK261739], for which the “% of control remaining” value is on record as 83.4681.

Regarding `CC(C)(C)OC(=O)N1CCC(c2cc(=O)n3c(n2)CCCCC3)C1` (stereo not shown) [CBK283415], the “% of control remaining” value worked out at 84.1363.

On to `COc1ccccc1CCC(=O)Nc1cnc(-c2ccc(F)cc2)c(-c2ccco2)n1` [CBK037002], for which the “% of control remaining” value worked out at 109.996.

For `CC(C)(CN1CCOCC1)NC(=O)c1cnc2cc(C(F)(F)F)ccc2c1O` [CBK107429], the “% of control remaining” value came out at 110.102.

Regarding `COc1cc(CCc2cc(O)n3nc(-c4cccc(C)c4)c(C)c3n2)on1` [CBK285691], the “% of control remaining” value is 114.344.

`O=C(COC(=O)c1cc(O)nc2ccccc12)c1ccccc1Cl` [CBK265524]: the “% of control remaining” value is 117.557.

`COc1cccc(C(=O)N2CCCC2c2cc3cccnc3[nH]2)c1` (stereo not shown) [CBK285082]: the “% of control remaining” value turned out to be 86.7641.

`O=S(=O)(Nc1cc(F)cc(C(F)(F)F)c1)c1cc2c(N3CCNCC3)nccc2s1` [CBK038102C]: the “% of control remaining” value is given as 109.814.

In the case of `CC1CCCC(C)N1S(=O)(=O)c1ccc(NS(=O)(=O)c2cccc(C(=O)O)c2)cc1` (stereo not shown) [CBK296944], the “% of control remaining” value was 94.1013.

Consider `CNc1nc(NC(C#N)c2ccccc2)ncc1N` (stereo not shown) [CBK174783], for which the “% of control remaining” value is 69.9492.

Turning to `CN1CCN(CC(O)COCc2ccc3c(c2)OCO3)CC1` (stereo not shown) [CBK278260C], the “% of control remaining” value was determined as 113.998.

Regarding `CN(C)C(=O)Cn1nc(-c2cc3c(s2)CCCC3)oc1=O` [CBK283905], the “% of control remaining” value is listed as 106.614.

As to `O=C(C1CCCO1)N1CCCC(c2cc3cccnc3[nH]2)C1` (stereo not shown) [CBK284978], the “% of control remaining” value came to 61.4757.

Take `N#CCSc1nnc(NC(=O)Nc2ccccc2)s1` [CBK028792]: the “% of control remaining” value was 56.9382.

As to `COc1ccc(C(C)C)cc1-c1cncc(NCc2ccc3c(c2)OCO3)n1` [CBK065348], the “% of control remaining” value is 59.9402.

With `O=C(Nc1ccc2[nH]ccc2c1)c1ccccc1Nc1cccc(C(F)(F)F)c1` [CBK149583], the “% of control remaining” value turned out to be 46.2592.

For `Cc1ccc2nc(COC(=O)c3ccc(Cn4nnc5ccccc54)cc3)cn2c1` [CBK297923], the “% of control remaining” value turned out to be 100.81.

In the case of `O=c1ccc2ccc(-c3ccc(OC(F)(F)F)cc3)nc2[nH]1` [CBK073720], the “% of control remaining” value was 52.51.

`Cc1nnc(SCC(=O)Nc2ccc(CN3CCOCC3)cc2)n1C` [CBK306092]: the “% of control remaining” value came to 47.0695.

For `CC12CCC(C(=O)Nc3ccccc3)(OC1=O)C2(C)C` (stereo not shown) [CBK018129], the “% of control remaining” value amounted to 33.8796.

`CC(=O)N1CC[C@H]2NC(=O)CNC(=O)C3(CCCC[C@H]2C1)CCN(C(=O)CC1CCOCC1)CC3` [CBK292030]: the “% of control remaining” value was 120.379.

As for `C=CCOc1ccc2ccccc2c1CNc1nc[nH]n1` [CBK267296], the “% of control remaining” value is reported as 114.99.

As to `CNCc1cc(Br)ccc1OC` [CBK027857], the “% of control remaining” value was found to be 16.1689.

Regarding `FC(F)(F)c1ccc(OCc2ccc(Cl)c(Cl)c2)nc1` [CBK115831], the “% of control remaining” value came out at 96.9333.

Consider `Clc1cccc(-c2cn3ccnc3c(NCc3cccnc3)n2)c1` [CBK066237], for which the “% of control remaining” value is 88.2149.

Regarding `O=C(CSc1nnc(-c2ccccc2O)n1Cc1ccccc1)NC12CC3CC(CC(C3)C1)C2` [CBK266075], the “% of control remaining” value is on record as 101.871.

Turning to `CCOC(=O)CNS(=O)(=O)c1cccc2cccnc12` [CBK034440], the “% of control remaining” value is 93.7726.

Turning to `CCOC(=O)C1CCCN(CCC(=O)Nc2ccccc2)C1` (stereo not shown) [CBK264192C], the “% of control remaining” value is 104.73.

For `O=C(O)c1cc(NC(=O)c2cccc(N3C(=O)c4ccc([N+](=O)[O-])cc4C3=O)c2)cc(C(=O)O)c1` [CBK261394], the “% of control remaining” value is reported as 96.9281.

With `NS(=O)(=O)c1ccccc1NC(=O)NC1CCCCC1` [CBK016919], the “% of control remaining” value came out at 122.321.

On to `COc1cc([N+](=O)[O-])ccc1NC(=O)NCc1ccco1` [CBK266855], for which the “% of control remaining” value is given as 86.0994.

For the compound `COc1ccc(CN(C(=O)CCN2C(=O)c3ccccc3S2(=O)=O)c2ccccc2O)cc1` [CBK265973], the “% of control remaining” value came out at 48.569.

Take `COc1ccc(-c2nc3cc(NC(=O)COc4ccccc4[N+](=O)[O-])ccc3o2)cc1Cl` [CBK263412]: the “% of control remaining” value came out at 107.594.

For `CCc1ccc(NC(=O)CN2CCN(c3ccccc3F)CC2)cc1` [CBK307549], the “% of control remaining” value worked out at 23.1001.

Consider `Cc1nc(-c2cccnc2)sc1C(=O)NC(C)C1CC2CCC1C2` (stereo not shown) [CBK281637], for which the “% of control remaining” value is recorded as 104.404.

As to `O=C(O)C(Cc1ccccc1)Nc1ncnc2sc3c(c12)CCC3` (stereo not shown) [CBK265266], the “% of control remaining” value is 108.212.

Regarding `CCCN1C(C)=NS(=O)(=O)c2cc(C(=O)O)ccc21` [CBK287251], the “% of control remaining” value was found to be 42.4645.

For `COC(=O)c1ccc(NC(=O)N2CCCCC2CCn2ccnc2)cc1` (stereo not shown) [CBK307195], the “% of control remaining” value was 114.903.

Consider `CN(CC(=O)Nc1sc2c(c1C#N)CCCC2)Cc1cnn(C)c1` [CBK304618], for which the “% of control remaining” value amounted to 84.7769.

As to `Cc1cc(Cc2cnc(NC(=O)C3CCS(=O)(=O)C3)s2)ccc1Br` (stereo not shown) [CBK298281], the “% of control remaining” value was 95.7635.

As for `O=C(CO)N1CC2(CCN(Cc3ccc(Cl)c(Cl)c3)CC2)c2ccccc21` [CBK131495], the “% of control remaining” value came out at 74.9375.

With `CCN(CC)C(=O)CN1CCCN(c2cc(OCc3cc(C)on3)ncn2)CC1` [CBK083337T], the “% of control remaining” value was 51.5062.

`Cc1ccc(S(=O)(=O)NCC23C=CC(O2)C2C(=O)N(Cc4ccccc4)C(=O)C23)cc1` (stereo not shown) [CBK261170]: the “% of control remaining” value worked out at 85.0078.

For the compound `O=C(OCc1ccccc1)N1CCC(n2ccn(C(=O)CCC3CCCC3)c2=O)CC1` [CBK106670], the “% of control remaining” value is recorded as 91.8057.

For the compound `Nc1ncnc2c1nc1n2[C@H]2C[C@@H](O)[C@H](O2)[C@H]1O` [CBK201183], the “% of control remaining” value worked out at 97.1307.

As to `COC(=O)c1ccccc1S(=O)(=O)n1c(=O)n(CCc2c[nH]c3ccccc23)c2ccccc21` [CBK106509], the “% of control remaining” value was 98.6911.

As to `CC(C)(C)c1ccc(-c2cnc3nc(O)ccc3c2)cc1` [CBK081284], the “% of control remaining” value was determined as 56.6907.

`Cc1cc(C(=O)N2CCCc3ccccc32)n[nH]1` [CBK200346]: the “% of control remaining” value is 117.194.

`COCCNc1nccnc1-c1cccs1` [CBK036739]: the “% of control remaining” value is 83.2583.

For `O=C(NC(Cc1ccccc1)N1C(=O)c2ccccc2C1=O)N1CCCc2ccccc21` (stereo not shown) [CBK265551], the “% of control remaining” value amounted to 81.3967.

As for `O=C(Nc1ccccc1[N+](=O)[O-])C1(c2ccccc2)CCN(S(=O)(=O)c2ccccc2)CC1` [CBK267796], the “% of control remaining” value stood at 90.3023.

On to `CCC(Sc1nc2ccc(F)cc2[nH]1)C(=O)O` (stereo not shown) [CBK287174], for which the “% of control remaining” value worked out at 88.7304.

`COc1cc2c(cc1OC)CN(CC(O)COc1cccc3c1CCCC3)CC2` (stereo not shown) [CBK003828]: the “% of control remaining” value turned out to be 108.225.
